Test results: PubChem BioAssay AID624296 (National Center for Advancing Translational Sciences (NCATS), 2012)
Out of some 350,000 compounds screened, about 9,900 (2.8%) were called active. Inconclusive results, whose numbers are uncertain, are shown with a selection of clear calls. The call rests on the fitted dose curve; in most records, active means well fitted activation curve with a large enough effect; inconclusive means small, poorly fitted or top-dose-only effect; inactive means no such curve, though single readings can be large or run the other way. No potency is given beside an inconclusive call; the fits are too rough.

Assay: A quantitative high throughput screen for small molecules that induce DNA re-replication in MCF 10a normal breast cells. Further: nearly all actives have a fitted effect of over 50% in size.
Details: MCF 10A DNA re-replication, Hoechst nuclear intensity, 48 h; series mostly up to 46.1 µM
Potency means the concentration at half of the fitted maximal effect; tags describe the fitted curve by direction and shape.

Which Potency does the source give for `CCc1ccccc1NC(=O)CN1CCN(C(=O)C2CCN(C(=O)/C=C/c3ccccc3)CC2)CC1` here?
Its Potency is inconclusive [activator, partial curve, poor fit].

With `CN(/N=C/c1ccc(O)cc1O)c1nc(-c2ccccc2)cc(-c2ccccc2)n1` as the molecule, how does the Potency read?
The Potency was active: 18.4 µM.

With `COc1cc2c(cc1OC)CN(C(=O)CNS(=O)(=O)c1ccc(C)c(C)c1)CC2` as the molecule, how does the Potency read?
Its Potency is inconclusive [activator, single point].

For `COc1ccccc1/C=C/C(=O)NNC(=O)c1cccs1`, which Potency is on record?
Its Potency is “inactive”.

With `CCN(CC)C(=O)CSc1nc(O)c(Cc2ccc(OC)cc2)c(=O)[nH]1` as the molecule, how does the Potency read?
The Potency was inconclusive [activator, single point].

Which Potency does the source give for `Cc1cccc(-n2cc(CNCCc3nc(C)cc(C)n3)c(-c3cccc(F)c3)n2)c1` here?
Its Potency is active: 4.11 µM.

For `Cc1ccc(-c2nn(CCC(=O)NC(C)C)c(=O)c3ccccc23)cc1`, which Potency is on record?
Its Potency is “inactive”.

Which Potency does the source give for `COc1ccc(/C=C/C=N/NC(=O)COc2ccc(OC)cc2)cc1` here?
The Potency was inconclusive [activator, single point].

For `Cc1coc2cc3oc(=O)c(CCC(=O)NCCN4CCOCC4)c(C)c3cc12`, which Potency is on record?
The Potency was “inactive”.

For `O=C(COC(=O)C1CCCO1)Nc1cccc(C(F)(F)F)c1` (stereo unspecified), which Potency is on record?
The Potency was inconclusive [activator, partial curve, poor fit].

Which Potency does the source give for `Cc1cccc2cc(CN(CC3CCCO3)C(=S)Nc3ccccc3)c(=O)[nH]c12` (stereo unspecified) here?
Its Potency is inconclusive [activator, single point].

Which Potency does the source give for `COc1nc(N)c(C#N)c(-c2ccc(N(C)CCC#N)cc2)c1C#N` here?
Its Potency is active: 18.4 µM.

For `Cc1nn(-c2ccccc2)c2sc(C(=O)NCCN3CCOCC3)cc12`, which Potency is on record?
Its Potency is inconclusive [activator, partial curve, poor fit].

For `Cc1c(Cl)cnc(NC(=O)COC(=O)[C@H](C)NC(=O)c2ccccc2)c1Cl`, which Potency is on record?
Its Potency is “inactive”.

For `CCN1C(=O)C(O)(CC(=O)c2cccc(-n3cccc3)c2)c2ccccc21` (stereo unspecified), which Potency is on record?
The Potency was inconclusive [activator, single point].

For `Cn1c(SCC(=O)NC2CC2)nnc1C(F)(F)F`, which Potency is on record?
The Potency was inconclusive [activator, single point].

For `CCN(CC)CCN(Cc1cc2cc3c(cc2[nH]c1=O)OCO3)C(=S)NCc1ccco1`, which Potency is on record?
Its Potency is “inactive”.

Which Potency does the source give for `Cc1ccnc(NS(=O)(=O)c2ccc(NC(=O)/C=C/c3cccs3)cc2)n1` here?
The Potency was inconclusive [activator, single point].

With `Cc1ccc(NC(=O)c2nc[nH]c2C(=O)N[C@@H](C)c2ccccc2)cc1` as the molecule, how does the Potency read?
The Potency was inconclusive [activator, single point].

Which Potency does the source give for `CSc1c(CN2CCN(C)CC2)c2ccccc2n1C` here?
Its Potency is inconclusive [activator, full curve, poor fit].

For `CC(=O)O[C@H]1CC(C)(C)C(=C=C/C(C)=C/C=C/C(C)=C/C=C/C=C(C)/C=C/C=C(\C)C(=O)C[C@@]23O[C@]2(C)C[C@@H](O)CC3(C)C)[C@](C)(O)C1`, which Potency is on record?
Its Potency is inconclusive [activator, single point].

For `CNc1nc(CC(C)=O)ns1`, which Potency is on record?
The Potency was inconclusive [activator, partial curve, poor fit].

Which Potency does the source give for `N#C/C(=C(/O)c1ccc(-c2cccc([N+](=O)[O-])c2)o1)c1nc2ccccc2s1` here?
Its Potency is inconclusive [activator, full curve, poor fit].

For `COCCN1C(=O)N(c2cccc(OC)c2)C(=O)C1CC(=O)Nc1ccc(OC)cc1` (stereo unspecified), which Potency is on record?
The Potency was “inactive”.

For `c1ccc(CN2CCC(=NNc3nc4ccccc4[nH]3)CC2)cc1`, which Potency is on record?
Its Potency is inconclusive [activator, single point].

Which Potency does the source give for `O=C1CC(C(F)(F)C(F)(F)C(F)(F)F)=Nc2ccccc2N1` here?
The Potency was “inactive”.

With `COc1ccc(S(=O)(=O)Nc2nc(C(F)(F)F)cs2)cc1` as the molecule, how does the Potency read?
The Potency was inconclusive [activator, partial curve, poor fit].

Which Potency does the source give for `Cc1ccc(S(=O)(=O)Nc2cc(=O)[nH]c(SCC(=O)Nc3cccc(C)c3)n2)cc1` here?
The Potency was inconclusive [activator, single point].

With `Cc1ccc(NC(=O)N2CCCC2c2cccs2)cc1` (stereo unspecified) as the molecule, how does the Potency read?
Its Potency is inconclusive [activator, single point].

Which Potency does the source give for `COC(=O)C(CC(=O)c1ccc(Br)cc1)n1nc(C)cc1C` (stereo unspecified) here?
Its Potency is inconclusive [activator, single point].

For `COc1cc(C2Nc3ccc4ncccc4c3C3=C2C(=O)CCC3)ccc1O` (stereo unspecified), which Potency is on record?
The Potency was active: 16.4 µM.

For `O=C(CCCc1ccccc1)NCCc1ccccc1`, which Potency is on record?
Its Potency is “inactive”.

Which Potency does the source give for `CCOC(=O)c1cc(-c2ccccc2)sc1NC(=O)C(C)OC(=O)c1cccc(S(=O)(=O)N(C)C)c1` (stereo unspecified) here?
Its Potency is inconclusive [activator, partial curve, poor fit].

For `O=C(CN(C1CCCCC1)C1CCCCC1)N1CCc2ccccc2C1`, which Potency is on record?
The Potency was inconclusive [activator, single point].

With `Cc1nn(Cc2ccc(C(=O)NC3CCCCC3)o2)c(C)c1Br` as the molecule, how does the Potency read?
Its Potency is inconclusive [activator, single point].

With `COc1ccc(OC)c(N(C(=O)c2snc(C(N)=O)c2N)C(C(=O)NCc2ccccc2)c2ccc(O)cc2)c1` (stereo unspecified) as the molecule, how does the Potency read?
Its Potency is inconclusive [activator, single point].

For `Cc1c(C=Nc2ccc(S(=O)(=O)N(C)C)cc2)c(O)[nH]c(=O)c1C#N`, which Potency is on record?
The Potency was “inactive”.

For `Cc1ccc(CN(C)CC(=O)NC(C)c2ccccc2)cc1` (stereo unspecified), which Potency is on record?
The Potency was inconclusive [activator, single point].

Which Potency does the source give for `COc1ccc(C(CNC(=O)C(C)Sc2ccccc2)N2CCOCC2)cc1` (stereo unspecified) here?
Its Potency is inconclusive [activator, full curve, poor fit].

With `O=C(Cc1cccc(NC(=O)C2CCN(C(=O)c3ccccc3)CC2)c1)Nc1cccc(C(=O)N2CCCC2)c1` as the molecule, how does the Potency read?
The Potency was inconclusive [activator, partial curve, poor fit].

For `O=C(COc1ccc(C2SCCS2)cc1)NNC(=O)C(Cl)Cl`, which Potency is on record?
Its Potency is inconclusive [activator, single point].
